From paper PMC11995724, “Antibiotic target discovery by integrated phenotypic and activity-based profiling of electrophilic fragments” (Cell chemical biology, 2025)
The campaign covered roughly 3,200 compounds. About 75 (2%) showed an effect of 50% or more. The list shows a part of the results.

Tested on: T1, S. aureus MSSA476
T1 construct: MSSA476
Set-up: species or system S. aureus MSSA476 (TSB) or V. cholerae SAD30 (LB); 384-well bacterial growth screen at 25 uM, OD600 relative to DMSO control
Conditions: relative growth, OD600, TSB; 25 µM; inhibitor

Row | SMILES | % of control remaining [%]
1 | CC(Cl)C(=O)N1CCCC1c1cccc2c1OCCO2 (centres unmarked) [7-L11, 2-chloro-1-[2-(2,3-dihydro-1,4-benzodioxin-5-yl)pyrrolidin-1-yl]propan-1-one] | 83.5165
2 | CC1CN(Cc2ccccc2)CC(C)N(C(=O)C(C)Cl)C1 (centres unmarked) [5-B21, 1-(4-benzyl-2,6-dimethyl-1,4-diazepan-1-yl)-2-chloropropan-1-one] | 97.6321
3 | O=C(CCl)c1cc(Cl)ccc1Cl [10-E16, 2-chloro-1-(2,5-dichlorophenyl)ethan-1-one] | 80
4 | CC(Cl)C(=O)N[C@H](C)c1cnnn1C (stereo partly drawn) [6-D13, 2-chloro-N-[(1R)-1-(1-methyl-1H-1,2,3-triazol-5-yl)ethyl]propanamide] | 89.122
5 | CC(Cl)C(=O)NC(Cc1ccccc1)c1ncco1 (centres unmarked) [7-E12, 2-chloro-N-[1-(1,3-oxazol-2-yl)-2-phenylethyl]propanamide] | 110.518
6 | O=C(CCl)NCCc1ccc2c(c1)OCCO2 [4-N11, 2-chloro-N-[2-(2,3-dihydro-1,4-benzodioxin-6-yl)ethyl]acetamide] | 99.8571
7 | CC(Cl)C(=O)NC(Cn1cncn1)c1ccccc1 (centres unmarked) [7-M09, 2-chloro-N-[1-phenyl-2-(1H-1,2,4-triazol-1-yl)ethyl]propanamide] | 75.3532
8 | C=CC(=O)NC(C)c1cnc(C(F)(F)F)s1 (centres unmarked) [2-A05, N-{1-[2-(trifluoromethyl)-1,3-thiazol-5-yl]ethyl}prop-2-enamide] | 119.06
9 | O=C(CCl)NCC12CCCCC1C2(F)F (centres unmarked) [5-C18, 2-chloro-N-({7,7-difluorobicyclo[4.1.0]heptan-1-yl}methyl)acetamide] | 117.668
10 | C=CC(=O)Nc1ccnn1Cc1cccc(Cl)c1 [1-N14, N-{1-[(3-chlorophenyl)methyl]-1H-pyrazol-5-yl}prop-2-enamide] | 96
11 | Cc1ccc(NC(=O)C(C#N)=Cc2cccs2)c(C)c1 [8-D15, 2-cyano-N-(2,4-dimethylphenyl)-3-(thiophen-2-yl)prop-2-enamide] | 115.519
12 | N#CC(=Cc1cccs1)C(=O)Nc1ccc(F)cc1 [8-F10, 2-cyano-N-(4-fluorophenyl)-3-(thiophen-2-yl)prop-2-enamide] | 95.6017
13 | Cc1ccc(NC(=O)N2CCN(C(=O)C(C)Cl)CC2)cc1Cl (centres unmarked) [7-A21, N-(3-chloro-4-methylphenyl)-4-(2-chloropropanoyl)piperazine-1-carboxamide] | 92.9356
14 | N#CC(=Cc1ccc2c(c1)OCO2)C(=O)NCc1ccco1 [9-A15, 3-(1,3-dioxaindan-5-yl)-2-cyano-N-[(furan-2-yl)methyl]prop-2-enamide] | 90.7865
15 | C=CC(=O)NCc1ccccc1CN1C(=O)NC2(CCCCC2)C1=O [2-O11, N-{[2-({2,4-dioxo-1,3-diazaspiro[4.5]decan-3-yl}methyl)phenyl]methyl}prop-2-enamide] | 95.7354
16 | C=CC(=O)Nc1ccnc(OC)c1 [2-F21, N-(2-methoxypyridin-4-yl)prop-2-enamide] | 114.534
17 | CCNC(=O)C(C#N)=Cc1ccc(O)c(OCC)c1 [8-O09, 2-cyano-3-(3-ethoxy-4-hydroxyphenyl)-N-ethylprop-2-enamide] | 121.494
18 | O=C(CCl)c1ccccn1 [10-J03, 2-chloro-1-(pyridin-2-yl)ethan-1-one] | 51.875
19 | C=CC(=O)NC(C)c1nnnn1-c1ccccc1 (centres unmarked) [2-I11, N-[1-(1-phenyl-1H-1,2,3,4-tetrazol-5-yl)ethyl]prop-2-enamide] | 109.661
20 | C=CC(=O)NCC(=C)c1ccccc1 [2-B09, N-(2-phenylprop-2-en-1-yl)prop-2-enamide] | 128.808
21 | N#CC(=Cc1c[nH]c2ccccc12)C(=O)Nc1ccc2c(c1)OCCO2 [9-B07, 2-cyano-N-(2,3-dihydro-1,4-benzodioxin-6-yl)-3-(1H-indol-3-yl)prop-2-enamide] | 68.3146
22 | C=CC(=O)N1CCOCC2(CCOCC2)C1 [2-C10, 1-{3,8-dioxa-11-azaspiro[5.6]dodecan-11-yl}prop-2-en-1-one] | 136.815
23 | CC(Cl)C(=O)NC1Cc2ccccc2N(C(=O)C(F)(F)F)C1 (centres unmarked) [7-N19, 2-chloro-N-[1-(2,2,2-trifluoroacetyl)-1,2,3,4-tetrahydroquinolin-3-yl]propanamide] | 114.286
24 | C=CC(=O)NCC1(n2ccnn2)CC1 [2-L19, N-{[1-(1H-1,2,3-triazol-1-yl)cyclopropyl]methyl}prop-2-enamide] | 115.927

Row | SMILES | % of control remaining [%]
25 | CC(Cl)C(=O)N(C)C1CCCc2c1cnn2C (centres unmarked) [6-L16, 2-chloro-N-methyl-N-(1-methyl-4,5,6,7-tetrahydro-1H-indazol-4-yl)propanamide] | 98
26 | COc1cc(Cl)c(C)cc1NC(=O)C(C#N)=Cc1c(C)n[nH]c1C [8-K10, N-(4-chloro-2-methoxy-5-methylphenyl)-2-cyano-3-(3,5-dimethyl-1H-pyrazol-4-yl)prop-2-enamide] | 88.6307
27 | N#Cc1ccc2c(c1)CCN2C(=O)CCl [5-N09, 1-(2-chloroacetyl)-2,3-dihydro-1H-indole-5-carbonitrile] | 100.911
28 | CC(Cl)C(=O)NCc1nnc(C2CCC2)n1C (centres unmarked) [7-A10, 2-chloro-N-[(5-cyclobutyl-4-methyl-4H-1,2,4-triazol-3-yl)methyl]propanamide] | 81.3187
29 | C=CC(=O)NC(CO)c1ccnn1C (centres unmarked) [2-D17, N-[2-hydroxy-1-(1-methyl-1H-pyrazol-5-yl)ethyl]prop-2-enamide] | 106.876
30 | C=CC(=O)Nc1ccc(C(=O)C(F)F)cc1 [1-M20, N-[4-(2,2-difluoroacetyl)phenyl]prop-2-enamide] | 114.286
31 | C=CC(=O)N1CCC(C(=O)Nc2nnc(CC)s2)CC1 [2-M10, N-(5-ethyl-1,3,4-thiadiazol-2-yl)-1-(prop-2-enoyl)piperidine-4-carboxamide] | 93.6466
32 | O=C(CCl)Cc1c(F)cccc1F [10-O15, 1-chloro-3-(2,6-difluorophenyl)propan-2-one] | 138.438
33 | C=CC(=O)N1CCCC(O)(CC(N)=O)C1 (centres unmarked) [3-K14, 2-[3-hydroxy-1-(prop-2-enoyl)piperidin-3-yl]acetamide] | 98.9116
34 | O=S(=O)(c1cc(Cl)cc(Cl)c1)N1CCSSCC1 [10-J09, 5-(3,5-dichlorobenzenesulfonyl)-1,2,5-dithiazepane] | 110.313
35 | O=C(Nc1cc(F)ccc1F)N1CCSSCC1 [10-H11, N-(2,5-difluorophenyl)-1,2,5-dithiazepane-5-carboxamide] | 89.0625
36 | Cc1ncsc1C=C(C#N)C(=O)NCCc1ccccc1 [9-H06, 2-cyano-3-(4-methyl-1,3-thiazol-5-yl)-N-(2-phenylethyl)prop-2-enamide] | 92.5843
37 | N#CC(=Cc1ccc(C#N)cc1)C(=O)Nc1ccccc1Cl [9-O17, N-(2-chlorophenyl)-2-cyano-3-(4-cyanophenyl)prop-2-enamide] | 104.569
38 | C=CC(=O)N(Cc1c(C)cccc1OC)C1CCCCNC1=O (centres unmarked) [1-F09, N-[(2-methoxy-6-methylphenyl)methyl]-N-(2-oxoazepan-3-yl)prop-2-enamide] | 104.791
39 | Cc1ncc(CNC(=O)C(C)Cl)n1C (centres unmarked) [5-J15, 2-chloro-N-[(1,2-dimethyl-1H-imidazol-5-yl)methyl]propanamide] | 97.2678
40 | C=CC(=O)N1CCC(C(=O)NCc2c[nH]cn2)CC1 [2-G10, N-[(1H-imidazol-4-yl)methyl]-1-(prop-2-enoyl)piperidine-4-carboxamide] | 85.6397
41 | CC(Cl)C(=O)NCc1cc(C(F)(F)F)cs1 (centres unmarked) [7-J19, 2-chloro-N-{[4-(trifluoromethyl)thiophen-2-yl]methyl}propanamide] | 77.865
42 | C=CC(=O)NCc1ccccc1N1CCCC(C(N)=O)C1 (centres unmarked) [3-L21, 1-{2-[(prop-2-enamido)methyl]phenyl}piperidine-3-carboxamide] | 104.484
43 | C=CC(=O)NC(C)c1nnc(-c2ccccc2F)s1 (centres unmarked) [3-N13, N-{1-[5-(2-fluorophenyl)-1,3,4-thiadiazol-2-yl]ethyl}prop-2-enamide] | 108.663
44 | Cc1nc(C)c(S(=O)(=O)N2CCSSCC2)s1 [10-M18, 5-[(2,4-dimethyl-1,3-thiazol-5-yl)sulfonyl]-1,2,5-dithiazepane] | 132.813
45 | Cc1coc(C)c1C(=O)CCl [10-M11, 2-chloro-1-(2,4-dimethylfuran-3-yl)ethan-1-one] | 117.813
46 | COc1ccc(-n2c(C)c(C)c(C#N)c2NC(=O)CCl)cc1 [4-F20, 2-chloro-N-[3-cyano-1-(4-methoxyphenyl)-4,5-dimethyl-1H-pyrrol-2-yl]acetamide] | 125.393
47 | C=CC(=O)N1CCC(C(=O)N2CCC(C(C)(C)O)CC2)CC1 [2-H14, 1-{4-[4-(2-hydroxypropan-2-yl)piperidine-1-carbonyl]piperidin-1-yl}prop-2-en-1-one] | 129.504
